We go through 17 compounds from the supplement of paper PMC12297408.

In the assay the test system is Plasmodium falciparum NF54/iGP1_RE9H ulg8 stage V gametocytes. Briefly: gametocyte viability (luciferase signal relative to DMSO control) (% of DMSO control); higher = less gametocytocidal activity, active = 50 or less. Particulars: exposure time: 72 h. A digest of the protocol: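 Compounds from 10 mM DMSO stocks were spotted at nanolitre scale into 96-well plates, and day-12 stage V NF54/iGP1_RE9Hulg8 gametocytes (~2.5% gametocytemia, 3% hematocrit; medium with 0.5% Albumax II) were added to reach 10 µM or 1 µM, one well per concentration. The plates were kept at 37 °C for 72 h. Luminescence was then read on an IVIS Lumina II after mixing 90 µl of culture with 10 µl D-luciferin (30 mg/ml). Viability values are relative to the plate's mean DMSO vehicle signal.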

Each structure is given as a SMILES string. Where a name gives a salt, the structure may show the parent alone. Screen size: about 1,300 compounds; about 40 (3%) showed activity. The list shows a part of the results.

On to `COc1cc(N)c(Cl)cc1C(=O)NC1CCN(CCCOc2ccc(F)cc2)CC1OC` (centres undefined) [Cisapride], for which the gametocyte viability runs as follows: (concentration: 1 µM) inactive: 95.9; (concentration: 10 µM) inactive: 96.7.
Regarding `CC(C)(C)NC(=O)[C@@H]1CN(Cc2cccnc2)CCN1C[C@@H](O)C[C@@H](Cc1ccccc1)C(=O)N[C@H]1c2ccccc2C[C@H]1O` [Indinavir sulfate], the gametocyte viability (concentration: 1 µM) was inactive: 67 and the gametocyte viability (concentration: 10 µM) was active: 40.
For the compound `O=C(O[C@@H]1C[C@@H]2C[C@H]3C[C@H](C1)N2CC3=O)c1c[nH]c2ccccc12` [Dolasetron mesilate], the gametocyte viability runs as follows: (concentration: 1 µM) inactive: 84.5; (concentration: 10 µM) inactive: 83.5.
For `COC(=O)Nc1nc2cc(C(=O)c3ccc(F)cc3)ccc2[nH]1` [Flubendazol], the gametocyte viability (concentration: 1 µM) was inactive: 80 and the gametocyte viability (concentration: 10 µM) is inactive: 87.7.
Regarding `Cc1c(OCC(F)(F)F)ccnc1C[S+]([O-])c1nc2ccccc2[nH]1` (centres undefined) [Lansoprazole], the gametocyte viability reads like this: (concentration: 1 µM) inactive: 86.3; (concentration: 10 µM) inactive: 80.6.
Consider `Cn1c(=O)c2c(ncn2C)n(C)c1=O` [Caffeine], for which the gametocyte viability was inactive: 97 (concentration: 1 µM) and inactive: 100 (concentration: 10 µM).
Take `CC(C)(C)NCC(O)c1ccc(O)c(CO)c1` (centres undefined) [Salbutamol]: the gametocyte viability was inactive: 84.6 (concentration: 1 µM) and inactive: 83.9 (concentration: 10 µM).
Turning to `COc1cc(N)c(Cl)cc1C(=O)NC1CCN(Cc2ccccc2)CC1` [Clebopride maleate], the gametocyte viability by setting is: (concentration: 1 µM) inactive: 88.6; (concentration: 10 µM) inactive: 86.1.
In the same order, the values of `Nc1nc(N)nc(-c2cc(Cl)ccc2Cl)n1` [Irsogladine maleate] are inactive: 85.3 and inactive: 79.8.
With `CCN1CCCC1CNC(=O)c1cc(S(=O)(=O)CC)c(N)cc1OC` (centres undefined) [Amisulpride], the gametocyte viability reads like this: (concentration: 1 µM) inactive: 87.8; (concentration: 10 µM) inactive: 80.8.
Turning to `O=C(NCC1CCCCN1)c1cc(OCC(F)(F)F)ccc1OCC(F)(F)F` (centres undefined) [Flecainide acetate], the gametocyte viability runs as follows: (concentration: 1 µM) inactive: 102; (concentration: 10 µM) inactive: 98.6.
On to `CC1CCc2cc(F)cc3c(=O)c(C(=O)O)cn1c23` (centres undefined) [Flumequine], for which the gametocyte viability is, setting by setting: (concentration: 1 µM) inactive: 86.4; (concentration: 10 µM) inactive: 85.
As to `CCCCOc1ccc(OCCCN2CCOCC2)cc1` [Pramoxine hydrochloride], the gametocyte viability was inactive: 87.8 (concentration: 1 µM) and inactive: 88.4 (concentration: 10 µM).
Turning to `CC(C)[C@H]1CC[C@H](C(=O)N[C@H](Cc2ccccc2)C(=O)O)CC1` [Nateglinide], the gametocyte viability runs as follows: (concentration: 1 µM) inactive: 93.6; (concentration: 10 µM) inactive: 95.8.
In the case of `COc1ccccc1OCCNCC(O)COc1cccc2[nH]c3ccccc3c12` (centres undefined) [Carvedilol], the gametocyte viability runs as follows: (concentration: 1 µM) inactive: 88.7; (concentration: 10 µM) inactive: 81.8.
As to `CC(C)c1nc(CN(C)C(=O)N[C@H](C(=O)N[C@@H](Cc2ccccc2)C[C@H](O)[C@H](Cc2ccccc2)NC(=O)OCc2cncs2)C(C)C)cs1` [Ritonavir], the gametocyte viability by setting is: (concentration: 1 µM) inactive: 66.4; (concentration: 10 µM) active: 36.5.
Turning to `CCn1cc(C(=O)O)c(=O)c2cc(F)c(N3CCNCC3)cc21` [Norfloxacin], the gametocyte viability is inactive: 83.5 (concentration: 1 µM) and inactive: 88.4 (concentration: 10 µM).
